According to patent publication US10766928B2, “Targeted conformationally-constrained kinked endosomal disrupting peptides” (priority 2012, dated 2020):
At least one peptide structure holds a part that was inferred or is arguable (an end, a ring closure or a residue). Non-standard residues stand in square brackets, D forms with d. Residues, ends and D or L forms follow the SMILES beside them. *: point of attachment. Pentanoyl(5-NH-cholesteryl) = CC(C)CCC[C@@H](C)[C@H]1CC[C@H]2[C@@H]3CC=C4C[C@@H](NCCCCC(=O)*)CC[C@]4(C)[C@H]3CC[C@]12C; Aib = CC(C)(N)C(=O)O; Ahx = NCCCCCC(=O)O; βAla = NCCC(=O)O

test system: endosomes of Jurkat lymphocytes; experiment: Endosome disruption in Jurkat lymphocytes: release of carboxyfluorescein from disulfide probe Compound 2, flow cytometry; conditions: SSA replaced by AAA
Protocol: The effects of the compounds of the invention on human Juikat leukemia cells were evaluated using flow cytometry-based assays of potency, efficacy, and toxicity. […] Analysis of flow cytometry data by non-linear regression was used to determine IC50 values for potency with the efficacy expressed as a percentage. […] Dose-dependent effects on cellular viability after 48 h at 37° C. in culture were also measured by flow cytometry.
The # represents the compound number in accordance with Tables A, B, and C. Concentrations of compound stock solutions were determined by absorbance measurements at 280 nm. Efficacy was determined as % change in cellular fluorescence relative to the maximal response of Compound 1, defined as 100%. Potencies and efficacies in Jurkat lymphocytes were measured by flow cytometry after treatment of cells with the compounds listed and the fluorescent probe Compound 2 (2.5 μM) for 14 hours. Toxicity to this cell line was determined by flow cytometry analysis of light scattering and counterstaining with PI after treatment for 48 h at 37° C. in culture. […] N.D., not determined.
Cells were treated with fluorescent molecular probe Compound 2 (2.5 μM) and endosome disruptors for 14 hours at 37° C. Enhanced cellular fluorescence resulting from release of the pH-sensitive fluorophore Compound 3 into the cytoplasm was quantified by flow cytometry.
Natural amino acids are represented by single letter codes. Codes for non-standard elements are as follows: Ch1: (3β-Cholest-5-en-3-yl-ammonio)pentanoyl; Ch2: (Cholester-3-yl)oxy-βAla-βAla; X: ε-Ahx; U: Aib; PB: Pacific Blue fluorophore. O: 3-(2-(2-(2-aminoethoxy)ethoxy)ethoxy)propanyl.

Compound	Enhancement of potency relative to Compound 1
CC(C)CCC[C@@H](C)[C@H]1CC[C@H]2[C@@H]3CC=C4C[C@@H](NCCCCC(=O)N[C@@H](CCC(=O)O)C(=O)N[C@@H](CCC(=O)O)C(=O)NCCCCCC(=O)NCCCCCC(=O)N[C@@H](C)C(=O)N[C@@H](C)C(=O)N[C@@H](C)C(=O)N[C@@H](Cc5c[nH]c6ccccc56)C(=O)N[C@@H](Cc5c[nH]c6ccccc56)C(=O)N[C@@H](C)C(=O)N[C@@H](Cc5ccc(O)cc5)C(=O)N[C@@H](Cc5c[nH]c6ccccc56)C(=O)N5CCC[C@H]5C(=O)N5CCC[C@H]5C(=O)N[C@H](C(=O)N[C@@H](C)C(N)=O)C(C)C)CC[C@]4(C)[C@H]3CC[C@]12C [Compound 5, R = EEXXAAAWWAYWPPVA-CONH2] ({Pentanoyl(5-NH-cholesteryl)}-EE[Ahx][Ahx]AAAWWAYWPPVA-NH2)	fourfold

same assay, conditions: Table 1; % change in cellular fluorescence relative to maximal response of Compound 1 (100%); Jurkat, 14 hours

Compound	Efficacy (% of max. 1) [%]
CC(C)CCC[C@@H](C)[C@H]1CC[C@H]2[C@@H]3CC=C4C[C@@H](NCCCCC(=O)N[C@@H](CCC(=O)O)C(=O)N[C@@H](CCC(=O)O)C(=O)NCCCCCC(=O)NCCCCCC(=O)N[C@@H](C)C(=O)N[C@@H](C)C(=O)N[C@@H](C)C(=O)N[C@@H](Cc5c[nH]c6ccccc56)C(=O)N[C@@H](Cc5c[nH]c6ccccc56)C(=O)N[C@@H](C)C(=O)N[C@@H](Cc5ccc(O)cc5)C(=O)N[C@@H](Cc5c[nH]c6ccccc56)C(=O)N5CCC[C@H]5C(=O)N5CCC[C@H]5C(=O)N[C@H](C(=O)N[C@@H](C)C(N)=O)C(C)C)CC[C@]4(C)[C@H]3CC[C@]12C [Compound 5, R = EEXXAAAWWAYWPPVA-CONH2] ({Pentanoyl(5-NH-cholesteryl)}-EE[Ahx][Ahx]AAAWWAYWPPVA-NH2)	100
CC(C)CCC[C@@H](C)[C@H]1CC[C@H]2[C@@H]3CC=C4C[C@@H](NCCCCC(=O)NCCC(=O)N[C@@H](CCC(=O)O)C(=O)N[C@@H](CCC(=O)O)C(=O)NCCCCCC(=O)N[C@@H](CO)C(=O)N[C@@H](CO)C(=O)N[C@@H](C)C(=O)N[C@@H](Cc5c[nH]c6ccccc56)C(=O)N[C@@H](Cc5c[nH]c6ccccc56)C(=O)N[C@@H](CO)C(=O)N[C@@H](Cc5ccc(O)cc5)C(=O)N[C@@H](Cc5c[nH]c6ccccc56)C(=O)N5CCC[C@H]5C(=O)N5CCC[C@H]5C(=O)N[C@H](C(=O)N[C@@H](C)C(N)=O)C(C)C)CC[C@]4(C)[C@H]3CC[C@]12C [Compound 6, R = BEEXSSAWWSYWPPVA-CONH2] ({Pentanoyl(5-NH-cholesteryl)-βAla}-EE[Ahx]SSAWWSYWPPVA-NH2)	94
CC(C)CCC[C@@H](C)[C@H]1CC[C@H]2[C@@H]3CC=C4C[C@@H](NCCCCC(=O)NCCC(=O)N[C@@H](CCC(=O)O)C(=O)N[C@@H](CCC(=O)O)C(=O)NCCCCCC(=O)N[C@@H](C)C(=O)N[C@@H](C)C(=O)N[C@@H](C)C(=O)N[C@@H](Cc5c[nH]c6ccccc56)C(=O)N[C@@H](Cc5c[nH]c6ccccc56)C(=O)N[C@@H](C)C(=O)N[C@@H](Cc5ccc(O)cc5)C(=O)N[C@@H](Cc5c[nH]c6ccccc56)C(=O)N5CCC[C@H]5C(=O)N5CCC[C@H]5C(=O)N[C@H](C(=O)N[C@@H](C)C(N)=O)C(C)C)CC[C@]4(C)[C@H]3CC[C@]12C [Compound 7, R = BEEXAAAWWAYWPPVA-CONH2] ({Pentanoyl(5-NH-cholesteryl)-βAla}-EE[Ahx]AAAWWAYWPPVA-NH2)	99
CC(C)CCC[C@@H](C)[C@H]1CC[C@H]2[C@@H]3CC=C4C[C@@H](NCCCCC(=O)NCCC(=O)N[C@@H](CCC(=O)O)C(=O)N[C@@H](CCC(=O)O)C(=O)NCCCCCC(=O)NCCCCCC(=O)N[C@@H](C)C(=O)N[C@@H](C)C(=O)N[C@@H](C)C(=O)N[C@@H](Cc5c[nH]c6ccccc56)C(=O)N[C@@H](Cc5c[nH]c6ccccc56)C(=O)N[C@@H](C)C(=O)N[C@@H](Cc5ccc(O)cc5)C(=O)N[C@@H](Cc5c[nH]c6ccccc56)C(=O)N5CCC[C@H]5C(=O)N5CCC[C@H]5C(=O)N[C@H](C(=O)N[C@@H](C)C(N)=O)C(C)C)CC[C@]4(C)[C@H]3CC[C@]12C [Compound 8, R = BEEXXAAAWWAYWPPVA-CONH2] ({Pentanoyl(5-NH-cholesteryl)-βAla}-EE[Ahx][Ahx]AAAWWAYWPPVA-NH2)	113
CC(C)CCC[C@@H](C)[C@H]1CC[C@H]2[C@@H]3CC=C4C[C@@H](NCCCCC(=O)NCCC(=O)N[C@@H](CCC(=O)O)C(=O)N[C@@H](CCC(=O)O)C(=O)NCCCCCC(=O)NC(C)(C)C(=O)NC(C)(C)C(=O)NC(C)(C)C(=O)N[C@@H](Cc5c[nH]c6ccccc56)C(=O)N[C@@H](Cc5c[nH]c6ccccc56)C(=O)N[C@@H](C)C(=O)N[C@@H](Cc5ccc(O)cc5)C(=O)N[C@@H](Cc5c[nH]c6ccccc56)C(=O)N5CCC[C@H]5C(=O)N5CCC[C@H]5C(=O)N[C@H](C(=O)N[C@@H](C)C(N)=O)C(C)C)CC[C@]4(C)[C@H]3CC[C@]12C [Compound 9, R = BEEXUUUWWAYWPPVA-CONH2] ({Pentanoyl(5-NH-cholesteryl)-βAla}-EE[Ahx][Aib][Aib][Aib]WWAYWPPVA-NH2)	87
CC(C)CCC[C@@H](C)[C@H]1CC[C@H]2[C@@H]3CC=C4C[C@@H](NCCCCC(=O)NCCC(=O)N[C@@H](CCC(=O)O)C(=O)N[C@@H](CCC(=O)O)C(=O)NCCCCCC(=O)NC(C)(C)C(=O)NC(C)(C)C(=O)N[C@@H](Cc5c[nH]c6ccccc56)C(=O)N[C@@H](Cc5c[nH]c6ccccc56)C(=O)N[C@@H](C)C(=O)N[C@@H](Cc5ccc(O)cc5)C(=O)N[C@@H](Cc5c[nH]c6ccccc56)C(=O)N5CCC[C@H]5C(=O)N5CCC[C@H]5C(=O)N[C@H](C(=O)N[C@@H](C)C(N)=O)C(C)C)CC[C@]4(C)[C@H]3CC[C@]12C [Compound 10, R = BEEXUUWWAYWPPVA-CONH2] ({Pentanoyl(5-NH-cholesteryl)-βAla}-EE[Ahx][Aib][Aib]WWAYWPPVA-NH2)	97
CC(C)CCC[C@@H](C)[C@H]1CC[C@H]2[C@@H]3CC=C4C[C@@H](NCCCCC(=O)NCCC(=O)N[C@@H](CCC(=O)O)C(=O)N[C@@H](CCC(=O)O)C(=O)NCCCCCC(=O)NC(C)(C)C(=O)NC(C)(C)C(=O)NC(C)(C)C(=O)N[C@@H](Cc5c[nH]c6ccccc56)C(=O)N[C@@H](Cc5c[nH]c6ccccc56)C(=O)N[C@@H](C)C(=O)N[C@@H](Cc5ccc(O)cc5)C(=O)N[C@@H](Cc5c[nH]c6ccccc56)C(=O)N5CCC[C@H]5C(=O)N5CCC[C@H]5C(=O)N[C@H](C(N)=O)C(C)C)CC[C@]4(C)[C@H]3CC[C@]12C [Compound 11, R = BEEXUUUWWAYWPPV-CONH2] ({Pentanoyl(5-NH-cholesteryl)-βAla}-EE[Ahx][Aib][Aib][Aib]WWAYWPPV-NH2)	71
CC(C)CCC[C@@H](C)[C@H]1CC[C@H]2[C@@H]3CC=C4C[C@@H](NCCCCC(=O)NCCC(=O)N[C@@H](CCC(=O)O)C(=O)N[C@@H](CCC(=O)O)C(=O)NCCCCCC(=O)NC(C)(C)C(=O)NC(C)(C)C(=O)NC(C)(C)C(=O)N[C@@H](C)C(=O)N[C@@H](Cc5c[nH]c6ccccc56)C(=O)N[C@@H](C)C(=O)N[C@@H](Cc5ccc(O)cc5)C(=O)N[C@@H](Cc5c[nH]c6ccccc56)C(=O)N5CCC[C@H]5C(=O)N5CCC[C@H]5C(=O)N[C@H](C(=O)N[C@@H](C)C(N)=O)C(C)C)CC[C@]4(C)[C@H]3CC[C@]12C [Compound 12, R = BEEXUUUAWAYWPPVA-CONH2] ({Pentanoyl(5-NH-cholesteryl)-βAla}-EE[Ahx][Aib][Aib][Aib]AWAYWPPVA-NH2)	99
CC(C)CCC[C@@H](C)[C@H]1CC[C@H]2[C@@H]3CC=C4C[C@@H](NCCCCC(=O)NCCC(=O)N[C@@H](CCC(=O)O)C(=O)N[C@@H](CCC(=O)O)C(=O)NCCCCCC(=O)NC(C)(C)C(=O)NC(C)(C)C(=O)NC(C)(C)C(=O)N[C@@H](Cc5c[nH]c6ccccc56)C(=O)N[C@@H](C)C(=O)N[C@@H](C)C(=O)N[C@@H](Cc5ccc(O)cc5)C(=O)N[C@@H](Cc5c[nH]c6ccccc56)C(=O)N5CCC[C@H]5C(=O)N5CCC[C@H]5C(=O)N[C@H](C(=O)N[C@@H](C)C(N)=O)C(C)C)CC[C@]4(C)[C@H]3CC[C@]12C [Compound 13, R = BEEXUUUWAAYWPPVA-CONH2] ({Pentanoyl(5-NH-cholesteryl)-βAla}-EE[Ahx][Aib][Aib][Aib]WAAYWPPVA-NH2)	97
CC(C)CCC[C@@H](C)[C@H]1CC[C@H]2[C@@H]3CC=C4C[C@@H](NCCCCC(=O)NCCC(=O)N[C@@H](CCC(=O)O)C(=O)N[C@@H](CCC(=O)O)C(=O)NCCCCCC(=O)NC(C)(C)C(=O)NC(C)(C)C(=O)NC(C)(C)C(=O)N[C@@H](Cc5c[nH]c6ccccc56)C(=O)N[C@@H](Cc5c[nH]c6ccccc56)C(=O)N[C@@H](C)C(=O)N[C@@H](C)C(=O)N[C@@H](Cc5c[nH]c6ccccc56)C(=O)N5CCC[C@H]5C(=O)N5CCC[C@H]5C(=O)N[C@H](C(=O)N[C@@H](C)C(N)=O)C(C)C)CC[C@]4(C)[C@H]3CC[C@]12C [Compound 14, R = BEEXUUUWWAAWPPVA-CONH2] ({Pentanoyl(5-NH-cholesteryl)-βAla}-EE[Ahx][Aib][Aib][Aib]WWAAWPPVA-NH2)	51
CC(C)CCC[C@@H](C)[C@H]1CC[C@H]2[C@@H]3CC=C4C[C@@H](NCCCCC(=O)NCCC(=O)N[C@@H](CCC(=O)O)C(=O)N[C@@H](CCC(=O)O)C(=O)NCCCCCC(=O)NC(C)(C)C(=O)NC(C)(C)C(=O)NC(C)(C)C(=O)N[C@@H](Cc5c[nH]c6ccccc56)C(=O)N[C@@H](Cc5c[nH]c6ccccc56)C(=O)N[C@@H](C)C(=O)N[C@@H](Cc5ccc(O)cc5)C(=O)N[C@@H](C)C(=O)N5CCC[C@H]5C(=O)N5CCC[C@H]5C(=O)N[C@H](C(=O)N[C@@H](C)C(N)=O)C(C)C)CC[C@]4(C)[C@H]3CC[C@]12C [Compound 15, R = BEEXUUUWWAYAPPVA-CONH2] ({Pentanoyl(5-NH-cholesteryl)-βAla}-EE[Ahx][Aib][Aib][Aib]WWAYAPPVA-NH2)	<50
